For 22 molecules, binding signal results are on record in PMC12136788.

First the molecules themselves.
T1: UNK ZnF1-3 (human, UniProt Q9C0B0 31-174)
T1 sequence: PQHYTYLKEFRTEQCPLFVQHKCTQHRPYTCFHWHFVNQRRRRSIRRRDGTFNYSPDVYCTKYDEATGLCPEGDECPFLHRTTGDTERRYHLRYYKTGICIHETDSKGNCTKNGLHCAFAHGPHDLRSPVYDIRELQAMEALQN

B1: chr4:115894766:115894767:+_ENSMUSG00000028698_ENSMUST00000030464|mus_hu|mus_mus_mus_hu_True|8_8 (ssRNA)
RNA: GGGAGUUCUACAGUCCGACGAUCUUCCACACGGAAAUGUACUUCGGGUUUUCCAACGGCCAGUACCAGUCCGGCCAAACUACCCGAACAGGGUCCUCCCCCUCUCUCCUACAGAACACAACAAAAUAACAAAAUACUUUCAAGCAACAGAGGAUUGAGCAUCA
B2: chr4:144447494:144447495:+_ENSG00000153147_ENST00000283131|hu_hu|FALSE|FALSE (ssRNA)
RNA: GGGAGUUCUACAGUCCGACGAUCCCAGUUGUGUAAUGUAGACUUAGGAACCAAAACCAUAUGAGGCCCAGGAAUGUUUCUAUAAUGUUUCAUGUACCCAAGAAGAGAAAUUGUUUGAAGAGUCUUUCCUAGGCCCAUUUCAUCCAACAGAGGAUUGAGCAUCA
B3: chr6:117881578:117881579:-_ENSG00000047932_ENST00000052569|hu_mus|motif|central (ssRNA)
RNA: GGGAGUUCUACAGUCCGACGAUCCUUUAAUGUAGAAUAUGUCAUUUUUAUUUACAGGCUAAUUAAGAAUAUGAAACUCAACGGGAUAUAAUACAAUUAUCAUAAAUCCCCUUAUAUGUAAAUUAAUAUAUUUUUUGUUUUAAACAACAGAGGAUUGAGCAUCA
B4: chr7:40027299:40027300:+_ENSG00000065883_ENST00000340829|hu_hu|FALSE|FALSE (ssRNA)
RNA: GGGAGUUCUACAGUCCGACGAUCAUUCUUGUUCAAUUCAGCUGCCAGGCUACUCUUCAGAGUUAGUGUGCUAGGAGAAAUACUAGAAUGACGACUUCUGGAUCUAGACAAUCUGUGCCUGCUACGAGAUCUUGAAUGCCUAGACAACAGAGGAUUGAGCAUCA
B5: chr2:26245550:26245551:+_ENSMUSG00000026926_ENSMUST00000076431|mus_mus|FALSE|FALSE (ssRNA)
RNA: GGGAGUUCUACAGUCCGACGAUCAUUGUCCAGAGUGGUAACUUUGGUUUCAAACUUUUCCUGUCCAUCAACUGUUGCAAAAAUAGGCUUGGGUACUCCAGGCAAGGGAGAAGAGAGGGGGAUGUUGGGGUAGGUGGCACCACUCAACAGAGGAUUGAGCAUCA
B6: chr13:81889239:81889240:+_ENSMUSG00000051098_ENSMUST00000057598|mus_mus|motif|central (ssRNA)
RNA: GGGAGUUCUACAGUCCGACGAUCCAUGGCAAAAGUAGACACUUUGUGGCAUAUCCCAGCUUUUGAAAUAUAGUUAGAAGCGGAGCGAAACAGCCUUUCGGCACCAAAGGUAUUGAAGUGCCCAGGAAGCACCUUCUCCACAAGCAACAGAGGAUUGAGCAUCA
B7: chr4:134026413:134026414:+_ENSMUSG00000028832_ENSMUST00000130253|mus_mus|FALSE|FALSE (ssRNA)
RNA: GGGAGUUCUACAGUCCGACGAUCUACAAAUCAAAAGAAAUCAAGUAACAUUUUUUUUUUAAAAAGCUUAACAUUUUGGACUAACAAAUACCAUCUUGAGGAAUUAGUACUUGACAGUCACUCCCUAGGAAACAAAGAAUGGUGCAACAGAGGAUUGAGCAUCA
B8: chr14:76904430:76904431:+_ENSMUSG00000022010_ENSMUST00000022587|mus_mus|mus_mus_mus_hu_True|1_108 (ssRNA)
RNA: GGGAGUUCUACAGUCCGACGAUCUGCUGGAAAAAAAACCCUCGUGGAAAAAAAGAGGGAACACCAGCAGCCUUGUAUAAGCUAGAUAAAAUCUUCUGGCUUUCCGCAGCCCAGGGAGAAACAGAAAACGGCAGCCCUCGAGUGCAACAGAGGAUUGAGCAUCA
B9: chr22:32879901:32879902:+_ENSG00000100225_ENST00000397426|hu_mus|hu_hu_hu_mus_False|28_58 (ssRNA)
RNA: GGGAGUUCUACAGUCCGACGAUCCUCUUCCAUACUCAUGGCAUCCUGAAUUGACUCAGCUUCAACAUUUUGACUAGGCCCUAACAUACUGUCAUCAGUCCAGGCAUCAGACUGGGCGGCCUGUCCUUGGGAUGAAUCAGUCCCCAACAGAGGAUUGAGCAUCA
B10: chr5:128448638:128448639:+_ENSG00000066583_ENST00000173527|hu_mus|hu_hu_hu_mus_False|58_78 (ssRNA)
RNA: GGGAGUUCUACAGUCCGACGAUCGGCACUCGCCUUAAUUAGGUUCUGAAUUUCCUUGAAUUUUGGAUGGUCUUUGUCAGCUACCAGCUGUAGGAGGACAGCCUCACUAGUGGUCACGAUGAUCCCAGUGCGGGCAAGACGCUCCAACAGAGGAUUGAGCAUCA
B11: chr1:219384972:219384973:+_ENSG00000143353_ENST00000366928|hu_hu|motif|central (ssRNA)
RNA: GGGAGUUCUACAGUCCGACGAUCCCAUAACUUCAAUAUGUCUAACUCAGUUUUGCUUAGCUCAUGGUAAACAUUUGGAAAACGGUGAAACUUCGUGGUCACUCCUAGAGAUUUUAACAUUGAGUUUGUCUCUUCUGCCCAAGACAACAGAGGAUUGAGCAUCA
B12: chr16:32231720:32231721:-_ENSMUSG00000035764_ENSMUST00000042732|mus_hu|motif|central (ssRNA)
RNA: GGGAGUUCUACAGUCCGACGAUCACAAUCUUAACUCCCAAGGAGCAAUCCAAGAAUCCCGGCCAGCUGCUGGGUGUCCCGGAUCAGAUUUAAAACAAAACAUACAUACAGCAAGAACUCAGAAGUACAAAGAUUUCGCUCGCUCAACAGAGGAUUGAGCAUCA
B13: chr21:32491406:32491407:-_ENSG00000156299_ENST00000286827|hu_mus|motif|central (ssRNA)
RNA: GGGAGUUCUACAGUCCGACGAUCAACCCUUCUUAAGGAAUGGACAUUGUGAAAUGGGGAGGAGGAGGGCGGAACAAAAAGCGGUAAACCUUUUUUUUUUUAAAAAUGAAAGUGCUAGAAUGGGUUUUGUUCUUCCUGUCUGGACAACAGAGGAUUGAGCAUCA
B14: chr11:29608612:29608613:+_ENSMUSG00000020458_ENSMUST00000102843|mus_mus|motif|central (ssRNA)
RNA: GGGAGUUCUACAGUCCGACGAUCUUGAGAUUCCAAAGCAGAAACAUUUGGAAGCAAUAAGGGCACCUUAGAUACACUGGACCGGCUUUUGGAGAAUUCAUCUGAGACAUGUGCUUCAUCUUUAGGAUAUGUAUUCUUGAAAGACAACAGAGGAUUGAGCAUCA
B15: chr9:111175927:111175928:+_ENSMUSG00000046785_ENSMUST00000060711|mus_mus|motif|central (ssRNA)
RNA: GGGAGUUCUACAGUCCGACGAUCUCUUACAGAAAUAGGCGCAUAUUCCGGUUUAAAGCUAAAUGGAUUUGAGAAAAGUUCGGAGUCCUUUUUAAUGAACCUGAGGUCCUUAAAAUGUCUCUCAAAAUCUUUCUGUAGGCGGGACAACAGAGGAUUGAGCAUCA
B16: 420215_422326_3354_CDS_ENSG00000073614_ENST00000399788|human|control|control (ssRNA)
RNA: GGGAGUUCUACAGUCCGACGAUCGUAAUUGCUGCCACUCUGAAUAGCUUCCACUUUAGCGGUCCAUUCUCGAGCCUUUUGUAAGGCUUCUUUCAAGGACAACACAUUGGGUAGAAAGGCUGGAAUGUUCUUGGCUUCAUUCACCAACAGAGGAUUGAGCAUCA
B17: chr2:216981417:216981418:+_ENSG00000079246_ENST00000392132|hu_hu|hu_hu_hu_mus_True|8_8 (ssRNA)
RNA: GGGAGUUCUACAGUCCGACGAUCCUGAUACUGGUCCUUGCCAGCAAGGGCAUUAUCAGUGCCAUCUGUGCCAUAGAGGACUAACGCAAUCUCAUCUUUGCUCUCCGAAAAUACCUGUCGUUGGACAAACAUGGUUAUCACUUUCAACAGAGGAUUGAGCAUCA
B18: chr10:70021928:70021929:-_ENSMUSG00000037747_ENSMUST00000162251|mus_mus|FALSE|FALSE (ssRNA)
RNA: GGGAGUUCUACAGUCCGACGAUCAUGCAUGCUUCAGUGGGGACAUCUGAUGGCAGAUGGACAACAGAGGGUAAUGCUCCUAUGGGAAGACAGGGUGUGUGGGGCGGGGAAGGGGCGAAAGUGGUGUUAGCGUCCGACACUGAUCAACAGAGGAUUGAGCAUCA
B19: chr21:34823002:34823003:-_ENSG00000142188_ENST00000542230|hu_hu|FALSE|FALSE (ssRNA)
RNA: GGGAGUUCUACAGUCCGACGAUCGUAUUAUAUACAUAUUAACAGUCUAUGCAAUGAAAAAUAAAGAAAUUUCAUAAAACUAUUUCAAAACUCAGAACAUAAAAAUGUAAAGAAACAAAACAUUUAAUGUACAAUCUACUCCAUCAACAGAGGAUUGAGCAUCA
B20: chr3:150289932:150289933:+_ENSG00000144895_ENST00000460851|hu_hu|hu_hu_hu_mus_False|28_98 (ssRNA)
RNA: GGGAGUUCUACAGUCCGACGAUCCUUGUAGUUUUUAACAUCCCACACUUCCAUUUGUCCUCGAAGAUUUCCAAAUCCAGCCAGCACUAAUAUAUGUCCAUGAGGGCUAUAGUAGGCUGCGUUGCGAGGACCAGUCCCAAAGUCCAACAGAGGAUUGAGCAUCA
B21: chrX:98862621:98862622:+_ENSMUSG00000034160_ENSMUST00000044475|mus_hu|mus_mus_mus_hu_False|38_38 (ssRNA)
RNA: GGGAGUUCUACAGUCCGACGAUCCUGCAUCUCCUUUAGAGUGUUUCCCAUAUUAGAGUAGGCAUCAGCAAAGGUAGGACUGAUUCGAAUAGCCUCCUUAUAGUGCAUCAGAGCUUCCUGCAGUUUUCCCUGCUGCUGCAGUACCAACAGAGGAUUGAGCAUCA
B22: chr10:84478880:84478881:+_ENSMUSG00000035620_ENSMUST00000095385|mus_mus|FALSE|FALSE (ssRNA)
RNA: GGGAGUUCUACAGUCCGACGAUCUUUCUUUGUUUUUAAAUAAAUAAAGUUACCAUUAAACUGAUGACAUAUGGUAGAAAGGUAGAACACACACACAAAUACACACAGAGACCCCAGUUUAAAACAUGUGACAUACGAAUGACCCAACAGAGGAUUGAGCAUCA

This is one part of the list.

For the test, the target named is T1, UNK ZnF1-3. Briefly: nsRBNS (natural sequence RNA bind-n-seq); RBNS binding buffer (assumed for nsRBNS): 25 mM Tris pH 7.5, 150 mM KCl, 3 mM MgCl2, 0.01% Triton X-100, 500 ug/ml BSA, 20 U/ml SUPERase-In, 4 C; UNK is unkempt and MSI1 is Musashi-1; names of the RNAs are library labels; protein concentration not given here; high values mean tight binding.
Molecule B1 displayed a binding signal of 0.964 enrichment R. To B2 belongs 1.04 enrichment R; to B3, 2.66 enrichment R. As to B4, the binding signal came out at 0.627 enrichment R. Then B5, with 1.33 enrichment R.

With B6, the binding signal stood at 1.04 enrichment R.

Consider B7, for which the binding signal is 1.4 enrichment R. B8: the binding signal is 1.49 enrichment R. Then B9, with 1.24 enrichment R. B10 registered a binding signal of 0.873 enrichment R.

In the case of B11, the binding signal is 0.982 enrichment R.

Turning to B12, the binding signal came to 1.05 enrichment R. In turn, B13 displayed a binding signal of 2.3 enrichment R.

B14 had a binding signal of 1.22 enrichment R. Then B15, with 1.15 enrichment R. To B16 belongs 0.563 enrichment R; to B17, 0.606 enrichment R; to B18, 1.97 enrichment R.

On to B19, for which the binding signal was 0.702 enrichment R. In turn, B20 registered a binding signal of 0.961 enrichment R. As for B21, the binding signal was 1.07 enrichment R.

Take B22: the binding signal was determined as 1.83 enrichment R.
